The whole screen tested about 50,000 compounds, of which about 800 (1.6%) showed an effect of 50% or more. Some of the results follow.
target: Bcl-2-like protein 10 (Homo sapiens) (UniProt Q9HD36); test: TR3 peptide-Bcl-B binding displacers, biochemical primary FP assay, phenotype converters (AID 1240); conditions: GST-Bcl-B / FITC-TR3 peptide fluorescence polarization; stronger effect = higher value; compound at 3.75 mg/L;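 also: 0% = Bcl-B with tracer peptide and DMSO and 100% = tracer peptide lacking Bcl-B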
UniProt Q9HD36, sequence (Q9HD36 whole entry, looked up): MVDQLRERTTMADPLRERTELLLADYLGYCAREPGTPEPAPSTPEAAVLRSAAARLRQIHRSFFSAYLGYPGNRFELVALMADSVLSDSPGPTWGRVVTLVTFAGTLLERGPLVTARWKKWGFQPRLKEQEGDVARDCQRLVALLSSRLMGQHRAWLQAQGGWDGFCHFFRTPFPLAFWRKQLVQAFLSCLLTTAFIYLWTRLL

Structure (SMILES) | displacement
CC12CCC(C(=O)N(CN3CCCCC3)C1=O)C2(C)C (stereo not drawn) | -6.5%
CCn1c2ccccc2c2cc(CN3CCN(C(=O)c4cc(OC)c(OC)c(OC)c4)CC3)ccc21 | 6.8%
CCOc1ccc(NC(=O)c2ccc(C#CC(C)(C)O)cc2)cc1 | -1.7%
CCOc1cccc(/C=C2/SC(=S)NC2=O)c1O | 5.7%
COc1cc2c(cc1OC)C(C(Cl)(Cl)Cl)OC(=O)C2 (stereo not drawn) | -4.2%
COc1cc(C(=O)Oc2ccc(C(=S)N3CCOCC3)cc2)cc(OC)c1OC | 10.9%
Cc1cc(Cl)ccc1NC(=O)C(=O)NCc1cccnc1 | 12.4%
O=[N+]([O-])c1ccc(S(=O)(=O)N2CCSC2c2ccc(Cl)cc2)cc1 (stereo not drawn) | 7.3%
O=C(Oc1ccccc1C(=S)N1CCOCC1)c1cccc([N+](=O)[O-])c1 | 10.7%
Cc1cccc(NC(=O)c2ccc(C(=O)Nc3cccc(C)n3)cc2)n1 | 0.1%
CCc1c(C)nc2ccccc2c1SCC(=O)O | -4.3%
COc1ccc(C(=O)CSc2nc(C)cc(=O)[nH]2)cc1 | 11.4%
COC(=O)C1=C(C)NC2=C(C(=O)CC(C)(C)C2)C1c1ccc(OC)cc1OC (stereo not drawn) | 11.9%
CCOC(=O)C1=C(O)/C(=C/c2ccc(OCC)cc2)SC1=Nc1ccccc1 | -19.7%
CN(C)/C=C1\Nc2ccc(Br)c(Cl)c2C1=O | 7.7%
CCOC(=O)C(CCCCOc1cc(C)cc(C)c1)C(=O)OCC | 9%
O=C(O)Cc1nonc1NCn1nnc2ccccc21 | 15.7%
CCC1=NC(c2ccccc2)N(O)C1(C)C (stereo not drawn) | 7.6%
O=S(=O)(c1ccc(Oc2ccccc2)cc1)N1CCOCC1 | -4.8%
COCCN1C(=O)C(=O)/C(=C(/O)c2ccccc2)C1c1ccc(F)cc1 (stereo not drawn) | -20.5%
O=C(CN1C(=O)c2cccc3cccc1c23)Nc1ccc2c(c1)OCO2 | -4.6%
CCOC(=O)c1c(-c2ccccc2)csc1NC(=O)c1ccco1 | -5.4%

Structure (SMILES) | displacement
COc1cc(C(C2=C(O)CC(C)(C)CC2=O)C2C(=O)CC(C)(C)CC2=O)ccc1OC(C)=O (stereo not drawn) | 0.7%
Cc1ccccc1C(=O)Nc1sc2c(c1C(=O)N1CCN(Cc3ccccc3)CC1)CCC2 | -9.8%
COc1ccc(C2CC(=O)C3=C(C2)Nc2ccccc2NC3c2cccc3ccccc23)cc1OC (stereo not drawn) | 1.8%
COc1ccccc1N1C(=O)C2C(C1=O)C1C=CC2C12CC2 (stereo not drawn) | 15.1%
COc1cc(/C=c2\sc3nc4ccccc4n3c2=O)ccc1OCCOc1ccccc1 | 11.9%
C=CCn1c(Cc2ccccc2)nnc1SCC(O)Cn1c2ccccc2c2ccccc21 (stereo not drawn) | 2.8%
O=S(=O)(c1ccc(NC(=S)Nc2ccc(F)cc2)cc1)N1CCCC1 | -8.8%
CNC(=O)C(=O)Nc1ccc(OC)cc1OC | 12.8%
COc1cccc(NC(=O)/C(NC(=O)c2ccccc2)=C2\c3ccccc3-c3ccc([N+](=O)[O-])cc32)c1 | 12.5%
CCn1c2ccccc2c2cc(NS(=O)(=O)c3cccc([N+](=O)[O-])c3)ccc21 | -3.6%
O=C1NC2=C(C(=O)c3ccccc32)C(c2ccccc2)N1 (stereo not drawn) | -6%
Cc1nc2ccccc2n1C(=O)N(C)C | 6.1%
COc1ccc(Cl)cc1NC(=O)C1=C(C)NC(=O)NC1c1cccc2ccccc12 (stereo not drawn) | 15.4%
COc1ccc(-n2c(O)c(/C=C3/C(C)=Nc4ccccc43)c(=O)[nH]c2=O)cc1 | -6%
COc1cc(C(=O)Nc2ccc(NC(=O)c3cccs3)c(C)c2)cc(OC)c1OC | -0.3%
COC(=O)c1ccccc1NC(=O)c1cc(OC(C)=O)cc(C(=O)Nc2ccccc2C(=O)OC)c1 | 10.9%
C#CCOc1ccc(/C=C2\C(=O)NC(=O)N(c3ccc(Br)c(C)c3)C2=O)cc1 | -67.8%
Cc1ccc(C2Nc3ccc4ncccc4c3C3=C2C(=O)CC(C)(C)C3)cc1 (stereo not drawn) | 5.7%
Cn1c(=O)c2c(nc(NCCOc3ccc(F)cc3)n2C)n(C)c1=O | -2.5%
Nc1ccc(C(=O)Nc2ccccc2C(=O)O)cc1 | -1.2%
Nc1c(C(=O)C2CC2)sc2nc(-c3cccs3)cc(C(F)(F)F)c12 | 52.1%
COc1ccc(/C(C)=N/NC(=O)c2ccncc2)cc1[N+](=O)[O-] | 2.8%

Structure (SMILES) | displacement
Cc1nn(-c2ccc(Cl)cc2Cl)c2c1C(=O)CC(C)(C)C2 | 14%
CC(c1ccccc1)C1CC(=O)N(c2ccc(I)cc2)C1=O (stereo not drawn) | 10.3%
Cc1onc(-c2ccccc2)c1C(=O)Nc1ccc2c(c1)OCO2 | 4.6%
CCOc1cc(/C=C2\SC(N)=NC2=O)cc(Br)c1OS(=O)(=O)c1ccc(C)cc1 | 0.4%
Cc1cc(O)c(C(C)C)cc1N1C(=O)c2ccc3c4c(ccc(c24)C1=O)CC3 | -16.2%
O=C(CN(c1cccc(Cl)c1)S(=O)(=O)c1ccccc1)Nc1ccccc1Cl | 7.7%
CCC1CCc2c(sc(NC(=O)Cc3ccccc3)c2C(=O)OC)C1 (stereo not drawn) | 12.5%
Cc1cc(=O)oc2cc(OC(C)C)ccc12 | 8.1%
Cc1c(Cl)cccc1N1C(=O)C2C3C=CC(C4CC34)C2C1=O (stereo not drawn) | 5.6%
CCN1C(=O)N(COC(C)=O)C2C1N(COC(C)=O)C(=O)N2CC (stereo not drawn) | -3.3%
O=C1c2ccccc2NC(c2c(Cl)cccc2Cl)N1Cc1ccccc1 (stereo not drawn) | 10.9%
O=C(Nc1nc(-c2ccccc2)cs1)Nc1cccc2ccccc12 | -12.4%
Cc1ccc(S(=O)(=O)N2CCN(CC3CC4C=CC3C4)CC2)cc1 (stereo not drawn) | 11.1%
COc1ccc(CC(=O)Nc2sc3c(c2C(=O)Nc2ccc(Cl)cc2)CCC3)cc1 | -2.5%
CCOc1ccc(NC(=O)COc2cc(C)c(Cl)c(C)c2)cc1 | 1.1%
CCCCOc1ccc(C(=O)Nc2ccccc2-c2nc3ccccc3s2)cc1 | 34.5%
CNC(=S)NCCc1ccc(OC)c(OC)c1 | -12.5%
N/C(=N\N=C/c1ccc(Br)cc1)N/N=C\c1ccc(Br)cc1 | 2.6%
CC1=C(C(=O)c2ccccc2)C(c2cccc(F)c2)NC(=O)N1 (stereo not drawn) | 0.5%
COc1ccc(CCNc2cc(N3CCN(C(=O)c4ccc(Br)cc4)CC3)ccc2[N+](=O)[O-])cc1OC | 4.7%
Nc1ccccc1C(=O)Nc1ccc(C(=O)O)cc1 | 3.7%
COc1ccc(C2=Nc3ccccc3NC(c3ccc([N+](=O)[O-])cc3)C2)cc1 (stereo not drawn) | -7.2%

Structure (SMILES) | displacement
COc1ccc(/C=N/NC(=O)c2n[nH]c3c2CCC3)cc1O | -12.2%
C[N+]1=C(CC(=O)Nc2ccccc2Cl)c2ccccc2CC1(C)C | 1.4%
N/C(=N\OC(=O)c1ccc(Cl)c([N+](=O)[O-])c1)c1ccccc1Cl | 1.1%
C=CCN1C(=O)/C(=C\c2ccc(O)c([N+](=O)[O-])c2)C(=O)NC1=S | 0.6%
CC(C)C(=O)Nc1ccc(Cl)cc1C(=O)O | 8.1%
COc1ccc(/C=N/NC(=O)CC2C(=O)NN=C2C)cc1 (stereo not drawn) | 6.1%
Cc1ccc(-c2n[nH]c3c2C(c2cccc([N+](=O)[O-])c2)N(c2ccc(F)cc2)C3=O)cc1 (stereo not drawn) | -4.4%
CC(C)OC(=O)C1C(=O)CC(C)(O)C(C(=O)OC(C)C)C1/C=C/c1ccccc1 (stereo not drawn) | 4.3%
O=c1c2ccccc2nc(/C=C/c2c[nH]c3ccccc23)n1-c1cccc([N+](=O)[O-])c1 | -2.2%
O=C(NN1C(=O)c2ccccc2C1=O)c1ccc2c(c1)C(=O)N(c1cccc([N+](=O)[O-])c1)C2=O | 0.3%
COc1ccc(-c2nc3cc(NC(=O)/C=C/c4cccc([N+](=O)[O-])c4)ccc3o2)cc1Cl | 0.9%
Nc1nnc(SCc2ccc(Br)cc2)s1 | 6.7%
Cc1cccc(OCC(=O)N/N=C/c2cccnc2)c1 | 2.1%
CCCC(C)NS(=O)(=O)c1ccc([N+](=O)[O-])cc1 (stereo not drawn) | 13.2%
Cc1ccc(C2/C(=C(\O)c3ccccc3)C(=O)C(=O)N2CCCC(=O)O)cc1 (stereo not drawn) | 1.4%
Brc1ccc(C2=NCCO2)cc1 | 4.7%
COc1ccc(C2CC(=O)C3=C(C2)NC(C)=C(C(=O)OCC(C)C)C3c2ccc(F)cc2)cc1 (stereo not drawn) | -2.7%
COc1ccc(CCNC(=O)c2ccc(C)c([N+](=O)[O-])c2)cc1OC | -4.6%
Clc1ccccc1-c1nc(NCc2ccccc2)c2ccccc2n1 | 1.7%
C=CCSc1nc2ccccc2c(=O)n1Cc1ccccc1 | -7.8%
COc1ccc(S(=O)(=O)N(CC(=O)NCC2CCCO2)c2ccc(C)cc2)cc1Br (stereo not drawn) | -3.6%
N#Cc1cccc(NC(=O)/C=C/C(=O)O)c1 | -6%

Structure (SMILES) | displacement
N#C/C(=C\c1ccco1)C(=O)Nc1ccc(F)cc1 | -7.3%
CCOc1ccc2nc(SC)nc(C)c2c1 | -3.6%
Cc1ccc(OCc2nc(-c3ccccn3)no2)c(Br)c1 | 7.3%
O=C(c1ccccc1)N1CCN(c2cc(N3CCCC3)c(F)cc2[N+](=O)[O-])CC1 | -2.9%
O=C1/C(=C/c2ccc(I)o2)SC(=S)N1Cc1ccccc1 | 44%
O=C1/C(=C/c2cn(-c3ccccc3)nc2-c2cccs2)SC(=S)N1Cc1ccccc1 | 115%
CC1=C(C(=O)OCC(C)C)C(c2cc([N+](=O)[O-])ccc2Cl)C2=C(CCCC2=O)N1 (stereo not drawn) | -0.6%
CCC(Oc1ccccc1)C(=O)Nc1cc(C)ccn1 (stereo not drawn) | 0.3%
Cc1nc(SCC(=O)c2ccccc2)n[nH]1 | 3.2%
O=C(O)/C=C/c1cccc2c1OCCO2 | -4.7%
O=C(Nc1ccccc1)Nc1nnc(-c2cccc(F)c2)s1 | 6.2%
COc1cccc(C2C(C(=O)Nc3ccccc3)=C(C)N=C3SCC(=O)N32)c1 (stereo not drawn) | -20.5%
O=C(O)CCn1c2c(c3ccccc31)CCCC2 | 18.6%
C/C(=C/C(=O)Nc1c(C)n(C)n(-c2ccccc2)c1=O)C(=O)O | -11.1%
CCOc1cc(/C=C2\C(=O)NC(=O)N(c3ccc(Cl)cc3)C2=O)cc(Cl)c1OCC | 4%
Cc1ccc(/C=C2/SC(=O)N(CN3CCCCC3)C2=O)cc1 | 8.7%
c1ccc(-c2n[nH]c(-c3ccccn3)n2)nc1 | -21.3%
CCOC(=O)c1ccc(NC(=O)/C=C/c2ccc(OC)cc2)cc1 | -8.2%
CCOC(=O)C1(C)C=C(Nc2ccc(OC)cc2)C(=O)N1c1ccc(OC)cc1 (stereo not drawn) | 8.3%
COc1ccc2c(c1)/C(=C1/SC(C(C)=O)=C(c3ccccc3)S1)C(=S)C(C)(C)N2 | 17.1%
